Legend:
[1] = test system: Akt-S129, Akt-S473 and p21-T145 phosphorylation in PBMCs; assay: Phase I clinical study, phospho-biomarkers in PBMCs; format: in vivo, human; conditions: as a function of cumulative AUC
Description: Oral doses are administered twice daily for twenty-one consecutive days of a four week cycle. […] Response by RECIST is determined after every 2 cycles. Serial blood and plasma samples are collected on the first and final dosing days of Cycle 1 (i.e., Day 1 and Day 21) for pharmacokinetic analysis and for pharmacodynamic biomarker evaluations (specifically, total and phosphorylated forms of p21 and Akt).
Oral doses are administered four times daily for twenty-one consecutive days of a four week cycle. […] Response by RECIST is determined after every 2 cycles. […]
In addition, PBMCs were isolated to analyze p21 Total, p21-T145, Akt Total, Akt-T129, and Akt-S473 at time 0, 4 and 8 hours post dose on Day 1 and Day 21. PBMCs were analyzed as a whole and also separated into phenotypes (CD19, CD45). For each time point, the ratio of p21-T145/Total p21, Akt-S129/Total Akt, and Akt-S473/Total Akt was calculated.
In addition, PBMCs were isolated to analyze, p-p21-T145, p-Akt-S129, and p-Akt-S473 at time 0, 4 and 8 hours post dose on Day 1 and Day 21 for the BID dosing schedule and at time 0, 2, 4 and 6 hours post dose on Day 1 and Day 8 for the QID dosing schedule. PBMCs were analyzed as a whole and also separated into phenotypes (CD19, CD45).

[2] = test system: SUM-149PT xenografts; assay: Human IL-6 plasma levels in mice bearing SUM-149PT xenografts; format: in vivo; conditions: 75 mg/kg PO BID×8d; normalized for tumor weight
Description: The effect of CK2 inhibitors on the secretion of IL-6 by aggressive SUM-149PT xenografts was also studied.
Plasma was isolated, tumors were extracted and weighted. Human IL-6 levels in plasma were determined by ELISA and resulted values were normalized for tumor weight.

O=C(O)c1ccc2c(c1)nc(Nc1cccc(Cl)c1)c1ccncc12 [CX-4945]
phosphorylation of Akt-S129, Akt-S473 and p21-T145 in patient PBMCs [1]: decreases in a clear exposure-related (AUC) manner
reduction of human IL-6 levels in plasma [2]: 58%

From US20110212845A1, “Biomarkers for predicting the sensitivity and response of protein kinase CK2-mediated diseases to CK2 Inhibitors” (priority 2009, published 2011)
